According to the RNAGym collection of RNA variant scans (doi:10.7554/elife.90254):
The source gives no read counts; variants with many changes may rest on few reads.

B1: LINE1-mini (parent)
chain: GGCAGAGCUCAACACAGCGUGGCAAAGUGGCUGUGGCUAGACUGCC

Variants of: B1
Assay: self-cleavage, relative activity (ratio to wild type); higher = more cleavage; in vitro, sequencing; the parent is a self-cleaving ribozyme

Row | Variant | self-cleavage
1 | G7C G17C U34C | 0.04
2 | G7C G21A C23G | 0.08
3 | G7U C13U A14U A41C | 0.16
4 | G7U A12U G22U U28G U34C C45G | 0.08
5 | G7C G29C G36C A41U C46A | 0.03
6 | G7U A25G C45U | 0.06
7 | G7U A26U U32G A39G | 0.13
8 | G7C G17A G29C | 0.08
9 | G7U C10A G27U G36A | 0.01
10 | G7C U32C G33C G44U | 0.06
11 | G7U C8U C10G G17U A26U G44U | 0.01
12 | G7C C15A G17A G21U | 0.17
13 | G7C G17U U38C C46U | 0.04
14 | G7U C10U A16G | 0.01
15 | G7C G21U G27A U32A | 0.07
16 | G7C C23G U34C | 0.04
17 | G7C C15U G19U U38A | 0.04
18 | G7U C10G C23U | 0.03
19 | G7U A14U C18G A26G C37U C45A | 0.06
20 | G7U C8U G19C A25C U28G G36A | 0.05
21 | G7U A12C C46U | 0.03
22 | G7C G19A G29A C31G | 0.04
23 | G7U C13U U32G C46G | 0.04
24 | G7C U20A C23G G35A C46G | 0.03

Row | Variant | self-cleavage
25 | G7U C8A C10A G17A G21A A25C G29A | 0.06
26 | G7C G40C C45A | 0.07
27 | G7C C18A C37U C45G | 0.05
28 | G7U C8G G35U G36C C37G A41C C42A | 0.03
29 | G7U A14G G21A | 0.07
30 | G7C G19C G30A A41U | 0.13
31 | G7U A24C A25C G29C | 0.02
32 | G7U C13A G17U | 0.02
33 | G7U C13U A25U G33U | 0.15
34 | G7C C13U C23U | 0.13
35 | G7U A25C C31U U43A | 0.05
36 | G7C U20C G30C U38A G44U | 0.03
37 | G7C G21U U32A G40A | 0.12
38 | G7C U9C G19C U20A A24U A25C G29C A39G | 0
39 | G7U C8G C18A C42A | 0.14
40 | G7C U9C A11U A14G G19U G30C U34G G40A C42U | 0
41 | G7C G21A C37A | 0.2
42 | G7C G17U G30U | 0.12
43 | G7C G21C A41C | 0.05
44 | G7U A12G C18G C23G A24C G27C U28A C45G | 0.01
45 | G7C C18U A25C G29A C46A | 0.03
46 | G7U A11G C23U | 0.02
47 | G7U A11G A12C | 0.02
48 | G7U C8U C37A | 0.39

Row | Variant | self-cleavage
49 | G7U A11G C13A A14U G27U C31G G36A A39C | 0.02
50 | G7U C10A G22A C45U C46U | 0.02
51 | G7U C8A G21C U32C | 0.13
52 | G7C G33A C42U | 0.15
53 | G7U A11U A24C G27A | 0.06
54 | G7U A11U C37U C46U | 0.02
55 | G7U C8A C10A G17A G21C | 0.01
56 | G7C G40A G44C | 0.05
57 | G7U C10U C15U | 0.02
58 | G7C U9C G21U | 0
59 | G7C C18U A24G | 0.11
60 | G7C G27A U32C | 0.03
61 | G7U A25C G36A | 0.28
62 | G7U A12G C18G G19A U38A A39U | 0.13
63 | G7C U9A U38A | 0.04
64 | G7U C10G G30A A41C | 0.02
65 | G7U C8A G17A | 0.48
66 | G7C G17C G33C G35A | 0.06
67 | G7C G36U C37A C45A | 0.12
68 | G7U A12G G17U G27A | 0.04
69 | G7C G21A G29U C46A | 0.26
70 | G7U A11G C45A | 0.04
71 | G7U A14G G29A U32C | 0.24
72 | G7U C10A C23A C42U | 0.01

Row | Variant | self-cleavage
73 | G7C C15A C31A | 0.15
74 | G7U A12G A14U C18G C37U | 0.08
75 | G7U A12G C23U G27C G35U C45U | 0.01
76 | G7C U28A G29A G44U C46U | 0.01
77 | G7U C10A U32A C42G | 0.02
78 | G7U A14G G36U A39G | 0.01
79 | G7U C8G C13A C37A | 0.02
80 | G7U C8A A41U | 0.3
81 | G7U A11G U38C | 0.02
82 | G7C U32A G33A C46G | 0.03
83 | G7U C8U C13G C23A A26C | 0.43
84 | G7C G35C U43G | 0.01
85 | G7C G17A U20A A26C G40U C45U | 0.02
86 | G7U A11G C13G G17C G22U | 0.03
87 | G7C G17C C31U A39C | 0.04
88 | G7U A14G G17U U32G C37G G44A | 0.06
89 | G7C G17U G19A | 0.03
90 | G7U C8A U32A C46A | 0.25
91 | G7C G19C U20A U32C | 0.01
92 | G7C C15U G33C | 0.1
93 | G7C U20G G30U A39C | 0.09
94 | G7U C8G G22U G29U G30A | 0.12
95 | G7C G27U C37A C46A | 0.04
96 | G7C C13G G27A | 0.08

Row | Variant | self-cleavage
97 | G7C G21A C23U G27U U34G | 0.02
98 | G7C G17C A26C G40U | 0.09
99 | G7U C8U C18U G22C C23U A39G | 0.01
100 | G7U C13A G19A G30A U32G | 0.11
101 | G7U C8A U9G A16C G22A | 0.05
102 | G7U C10G G17C | 0.01
103 | G7U A11U U28C G40U | 0
104 | G7U C10A U20G G21U | 0.03
105 | G7C G27C C45U | 0.01
106 | G7C U28A G40C | 0.1
107 | G7C G40U C46G | 0.02
108 | G7U A25C G33U | 0.04
109 | G7U C13A G21U G35C | 0.15
110 | G7U C8U C10G G22U | 0.01
111 | G7U C8A A24U G40U | 0.18
112 | G7U C10G C23G A24C C37U | 0
113 | G7U A14C A26C C42U | 0.03
114 | G7C G19U C23U G29A C46U | 0.12
115 | G7U A26C U38C | 0.03
116 | G7U C8G C13U A14C | 0.02
117 | G7C U34G A39G C42U | 0.02
118 | G7U C10G A26G A41G C45A | 0.01
119 | G7U A14C G19C | 0.03
120 | G7C U9C C13U C23U G33A | 0.02

Row | Variant | self-cleavage
121 | G7C C15A U28C C31U | 0.03
122 | G7C G21A G35A U43C | 0.12
123 | G7U C13G G22A U32C | 0.09
124 | G7C U9G A16U G33U G40U | 0.02
125 | G7U C10A G35A A39C C46G | 0.03
126 | G7U A12G A24U G30A C31G A41U C42U | 0.05
127 | G7U A12U C15U G29A | 0.02
128 | G7U A16C U34A U38C | 0.02
129 | G7U C8U U38C | 0.34
130 | G7C G40U U43A | 0.04
131 | G7C G29U G33C | 0.09
132 | G7C G22A G35C | 0.07
133 | G7C C23A G29U C42G | 0
134 | G7C G21C C31A G44C | 0.02
135 | G7U C10A A26G C31G C37U | 0.01
136 | G7U A25G G44A | 0.15
137 | G7U C10G G19C G29A C42U | 0
138 | G7U C10G G44A C46G | 0.02
139 | G7U C8A G30U C31A | 0.12
140 | G7U A12U C13U A14G G17A G27C | 0.1
141 | G7C G27C G30U U43G | 0
142 | G7U A41U U43A | 0.03
143 | G7U C8G C13G C23G C46U | 0.13
144 | G7U A14G U28C | 0.03

Row | Variant | self-cleavage
145 | G7C C37G U38C | 0.01
146 | G7C U20G C37U | 0.01
147 | G7U C8U G40U | 0.11
148 | G7C G17A U20G U34G | 0.06
149 | G7C G33U G36U C37U U43G | 0
150 | G7U A11U C18A G22C | 0.01
151 | G7C U20A A24C G27U A41U | 0.14
152 | G7U A24U G29A | 0.02
153 | G7C C15G G19A C23U | 0.07
154 | G7U C8U A25C G30U C31A | 0.07
155 | G7C C42A G44A | 0.06
156 | G7C C18U A39C | 0.04
157 | G7C U9C G27U | 0
158 | G7U A12G A39C C42G C45G | 0.1
159 | G7C U28C G44C | 0.11
160 | G7U C13A C18G U38C | 0.09
161 | G7U C8A A14U | 0.11
162 | G7U C8A C13A C23U | 1.22
163 | G7U C13U C18U C23A A39U G44U C45U | 0.25
164 | G7U C8A G17A G35A | 0.06
165 | G7C G27C U28C | 0.05
166 | G7C G17U A25C C31A | 0.04
167 | G7U C8U C10U G27U | 0.04
